± gives the standard deviation of the averaged measurements. Some of the results follow.

The subject of the experiment is PfAP2-G AP2 domain (GST-tagged). Put plainly: gcPBM binding intensity (ln(normalized median fluorescence intensity)); higher = stronger DNA binding. The gist of the method: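 DNA-binding domains from P. falciparum, fused to GST and produced in E. coli, were put on an Agilent 4 × 180k double-stranded probe array for 1 h in 1× PBS holding 1% milk, 0.2 mg/ml BSA, 0.5% salmon testes DNA and 0.03% Triton X-100. Probes were primer-extended, 36 bp long and drawn from intergenic genomic regions, with negative controls included. After Alexa488 anti-GST antibody detection and a 488 nm scan, binding intensity was set as the highest Masliner-normalised natural-log median intensity across replicate spots of either probe orientation.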
With “TAAATGAAAATATGTACACACTTGAAAATTTTTATG [CACACA_site5599]”, the “gcPBM binding intensity (ln)” value amounted to 11.5 ± 0.82. As for “AAAAAAAAAAAAAAAACACACAAACATCAAATTACT [CACACA_site6950]”, the “gcPBM binding intensity (ln)” value came to 10.4 ± 0.18. For “AAATTTAAAAATAAAGAACACACATATGTAAAATAT [CACACA_site9252]” the value was 10.19 ± 0.028; for “AATTTCAATTTCTGTTGTACACTTTTTAATAGTAAA [XGTACX_site4085]”, 11.4 ± 0.88; for “AAGTGTTCTTGTTATACACACACATATATATATATA [CACACA_site8251]”, 10.4 ± 0.47.

Regarding “TATGATAAATATGGAGCACACACACCGAAACATACA [CACACA_site8031]”, the “gcPBM binding intensity (ln)” value amounted to 10.5 ± 0.3. “AAAAAGATAAAATATACATGCATATATAATATACAT [TGCATGCA_site488]”: the “gcPBM binding intensity (ln)” value is 9.55 ± 0.3. As for “TGCTTATATATAAATTGTACTGAAAGAATAAAATAA [XGTACX_site4025]”, the figure is 10.9 ± 0.67; as for “TATTATAATATATTTGTGCACATAATATCTCCGCTA [GTGCAC_site9799]”, 10.5 ± 0.35; as for “AGTAGTCTGGAGAAAAGTACATAGTATCTGATAACC [XGTACX_site2028]”, 11.3 ± 0.94. As to “AAAAAAGGTAAAAAAAGTACAAAAAAAAAATTAAAA [XGTACX_site6993]”, the “gcPBM binding intensity (ln)” value was found to be 11.3 ± 0.88. For “AAAAAAAAAAAATACACACACATATTTATTTATATA [CACACA_site7114]” the value was 9.74 ± 0.099; for “AAGTATAAATAAAGGCGTACACATGTAAATTATATT [XGTACX_site126]”, 11.7 ± 1.1; for “TTTGGATAAAAAATATGTACACACATATAGATATCT [XGTACX_site5660]”, 11.6 ± 0.71. As to “TTGACAGGAACGTTGGTGCACGTACTGTTTTTCTTT [GTGCAC_site9389]”, the “gcPBM binding intensity (ln)” value was 11 ± 0.53.

Take “GTATAATATTTTAATGCACACACACTAATAAAAAAA [CACACA_site8939]”: the “gcPBM binding intensity (ln)” value stood at 10.3 ± 0.21. With “TAATAGATGTTATGAAGTACTAAATATTAAATATAA [XGTACX_site5717]”, the “gcPBM binding intensity (ln)” value was found to be 10.9 ± 0.55. Regarding “TTTATTTTAAATGGGTGTACTCATTCCTTATGGAAG [XGTACX_site1397]”, the “gcPBM binding intensity (ln)” value worked out at 11.4 ± 0.98. As for “AAAATAATTCATGTTGGTAATAAGACTCGAGGTGAA [CACACA_negctrl_site1054]”, the figure is 10.08 ± 0.014; as for “TTGCATTTATTATACACACACAAAAAAATATTTATA [CACACA_site6252]”, 10.2 ± 0.16; as for “AAAACATAAATACATACACACATAATATAGATTAAT [CACACA_site6205]”, 9.955 ± 0.092.

As to “CATATGTATATGACTACACACAAGGGTGTACCTATA [CACACA_site6670]”, the “gcPBM binding intensity (ln)” value was 11.5 ± 1. As for “TTAAAAATAAATTCATGTACATAATATATATATATA [XGTACX_site7908]”, the figure is 11.2 ± 0.59. As for “TATATACAACGTTAAGCACACACAAAAAAAATTTAA [CACACA_site9013]”, the “gcPBM binding intensity (ln)” value turned out to be 10.2 ± 0.26.

Consider “TGTTCATTTTTAAAATGTACATATATGTTGTTCCAT [XGTACX_site8444]”, for which the “gcPBM binding intensity (ln)” value was 11 ± 0.75. For “CTATATGTTAAATTCTCACACATTATTACAATTTAA [CACACA_site5979]” the value was 9.89 ± 0.028; for “TATACTATTTAAATGTGTACTAAAAGAATATATTAT [XGTACX_site5238]”, 11.3 ± 0.88.

For “GAATATGTGATATTTTGTACATAAAAATAATATATA [XGTACX_site6398]”, the “gcPBM binding intensity (ln)” value turned out to be 10.9 ± 0.61. As for “ACGTATTTTTAAATATATGAATTATGTAACTTGTGA [CACACA_negctrl_site1446]”, the figure is 10.015 ± 0.007. For “TTTAAAAATATATTCACACAGAAATAGTAAAAGTTA [CACACA_site4587]” the value was 9.93 ± 0.13; for “AATTATAAAAAAAAAAAAAAAAAAAAAAACTAAATG [CACACA_negctrl_site1379]”, 9.73 ± 0.14. “ATAATGTATTTATATATATATATATATTTTAATAAA [CACACA_negctrl_site460]”: the “gcPBM binding intensity (ln)” value is 9.53 ± 0.11. For “TAATAAATCAATAAATGTACATATATGTATAATTTC [XGTACX_site980]” the value was 10.8 ± 0.31; for “TATATATAGAAACACACACACACACCCAAGCGTAGC [CACACA_site63]”, 10.3 ± 0.22.

As for “CAAGCCCTTCTGCTTACACACAGTAATTATTGTGCA [CACACA_site7399]”, the “gcPBM binding intensity (ln)” value amounted to 9.84 ± 0.11.

Take “ATCTATATCTATAATACACACATAAATGGATATATA [CACACA_site6284]”: the “gcPBM binding intensity (ln)” value was 9.91 ± 0.11. Turning to “AATGTGTACGCACGCACACACAAAAAAATATATATA [CACACA_site2913]”, the “gcPBM binding intensity (ln)” value was 11.6 ± 1.2. For “TTATGCAATTTGTATTGTACATTCATGATATTAATA [XGTACX_site5070]” the value was 10.6 ± 0.38. As for “TAAATATATTTATAAGCACACACTAATAAACCAACA [CACACA_site8022]”, the “gcPBM binding intensity (ln)” value is 10.3 ± 0.18. As for “TATTTATCTTTACGCACACACTTGCATGTACAAAAG [CACACA_site4753]”, the figure is 11.2 ± 0.84; as for “ATATGTATGTATTTATTATTGTGCATTGTATTTATA [CACACA_negctrl_site664]”, 10.055 ± 0.007; as for “TTTATTTTATTTTCATGTACAAAAGGGGAATAATAA [XGTACX_site2704]”, 10.9 ± 0.71. For “GATTTATACAAATATGTACACACTAAATATATATTA [CACACA_site455]” the value was 11.6 ± 0.9. For “TTTGAATATTCATATGCACACAAATTAATATACATA [CACACA_site8040]” the value was 10.1 ± 0.17.

Values taken from the supplement of paper PMC11417369.
